Measured values: article PMC4336329 (PLoS ONE, 2015)
About 2,200 (0.71%) of roughly 310,000 compounds showed an effect of 50% or more. Effects have a minus sign here. The list shows a part of the results.

The compounds below were run against human ether-à-go-go-related gene (hERG) potassium channel (human, UniProt Q12809) (assay: primary screen, population patch clamp on CHO cells stably expressing hERG).
human ether-à-go-go-related gene (hERG) potassium channel, sequence (Q12809 whole entry, looked up): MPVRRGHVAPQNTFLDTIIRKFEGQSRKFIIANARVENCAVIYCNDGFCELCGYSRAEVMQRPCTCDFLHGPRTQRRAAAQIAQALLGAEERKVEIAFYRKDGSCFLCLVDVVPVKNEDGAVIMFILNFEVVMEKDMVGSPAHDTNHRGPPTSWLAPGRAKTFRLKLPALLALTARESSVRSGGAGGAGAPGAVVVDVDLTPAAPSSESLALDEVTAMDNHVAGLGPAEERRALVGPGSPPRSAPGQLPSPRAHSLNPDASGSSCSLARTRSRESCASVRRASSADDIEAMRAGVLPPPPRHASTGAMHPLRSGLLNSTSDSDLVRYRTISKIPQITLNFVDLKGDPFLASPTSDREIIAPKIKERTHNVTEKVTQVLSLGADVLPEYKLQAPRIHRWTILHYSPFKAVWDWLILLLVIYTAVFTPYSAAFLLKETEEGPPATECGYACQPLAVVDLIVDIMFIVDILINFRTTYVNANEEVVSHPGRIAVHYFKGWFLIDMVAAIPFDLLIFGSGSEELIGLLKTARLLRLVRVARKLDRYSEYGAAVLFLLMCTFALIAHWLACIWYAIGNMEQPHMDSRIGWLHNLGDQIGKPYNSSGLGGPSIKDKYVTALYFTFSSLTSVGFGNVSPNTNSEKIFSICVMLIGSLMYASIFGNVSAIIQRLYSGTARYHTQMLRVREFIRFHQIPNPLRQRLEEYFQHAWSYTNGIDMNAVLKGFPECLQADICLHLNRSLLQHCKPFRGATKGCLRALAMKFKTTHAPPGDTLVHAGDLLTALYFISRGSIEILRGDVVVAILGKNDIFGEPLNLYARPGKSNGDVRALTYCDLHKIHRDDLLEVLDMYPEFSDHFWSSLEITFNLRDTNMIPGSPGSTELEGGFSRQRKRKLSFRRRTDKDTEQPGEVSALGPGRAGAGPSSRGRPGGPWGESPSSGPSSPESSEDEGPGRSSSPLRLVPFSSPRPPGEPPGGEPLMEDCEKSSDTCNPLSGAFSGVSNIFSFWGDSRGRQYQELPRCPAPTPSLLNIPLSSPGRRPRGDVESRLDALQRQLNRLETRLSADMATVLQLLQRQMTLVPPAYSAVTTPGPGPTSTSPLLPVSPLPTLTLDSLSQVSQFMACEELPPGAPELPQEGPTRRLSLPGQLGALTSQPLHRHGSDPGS

| SMILES | hERG current change (%, negative = inhibition) at 1uM [%] |
| --- | --- |
| CCOc1ccc(Nc2nc(Cc3nnc(SCC(=O)NC4CCCCC4)n3C)cs2)cc1 | -7.35 |
| O=C(CCc1ccccc1)Nc1nnc(-c2ccc3c(c2)OCCO3)o1 | 10.7 |
| CCc1ccc(S(=O)(=O)NCCc2csc(-c3ccccc3)n2)s1 | 13.2 |
| Cc1cc(=O)[nH]c(SCC(=O)N2CCC(C(N)=O)CC2)n1 | 12 |
| COC(=O)C1=C(C)Nc2ncnn2C1c1cccnc1 (centres unmarked) | -2.63 |
| CCOC(=O)c1cnn(-c2c(Cc3ccccc3)c(C)nc3c(-c4ccccc4)c(C)nn23)c1N | -6.02 |
| N#C/C(=C\c1ccc([N+](=O)[O-])cc1)C(=O)NCCCn1ccnc1 | -29.3 |
| CC(=O)N1CCc2cc(S(=O)(=O)CCC(=O)NCCc3ccccc3)ccc21 | 15.3 |
| COc1ccc(NC(=O)CSc2nc(O)cc(=O)n2C)cc1 | 14.3 |
| O=S(=O)(NCCSc1ccccn1)c1ccc(Br)cc1 | 2.05 |
| CCc1cc(Br)ccc1N1C(=O)C2CC=CCC2C1=O (centres unmarked) | 15.5 |
| O=C(CCCCCN1C(=O)c2ccccc2C1=O)Oc1ccc2c3c(c(=O)oc2c1)CCC3 | 13 |
| C=CCOC(=O)C1=C(C)NC(SCC(=O)N(CC)CC)=C(C#N)C1c1ccco1 (centres unmarked) | -12.5 |
| O=C(O)C(c1ccccc1)N1C(=O)c2ccccc2C1=O (centres unmarked) | 11 |
| O=C(c1ccc(S(=O)(=O)Nc2ccccc2F)cc1)N1CCCCCC1 | 8.85 |
| Cc1[nH]n(C(C)(C)C)c(=O)c1Sc1ccc(Cl)cc1 | 13.5 |
| COC(=O)c1cc(S(=O)(=O)Nc2cccc(OC)c2)cn1C | 11.1 |
| Cc1c(Br)c([N+](=O)[O-])nn1CC(=O)c1ccccc1 | 12.7 |
| O=C(CN1CCCN(Cc2ccc(F)cc2Cl)C1=O)NCc1ccccc1 | -14.7 |
| COc1ccccc1CCNC(=O)C(=O)NCC1OCCN1S(=O)(=O)c1ccc2c(c1)OCCO2 (centres unmarked) | 13.4 |
| CC(C)(C)c1ccc(CNc2ccc([N+](=O)[O-])cn2)cc1 | 2.44 |
| O=C(NNC(=O)c1ccc(O)cc1O)c1ccc(-c2ccccc2)cc1 | 11.8 |

| SMILES | hERG current change (%, negative = inhibition) at 1uM [%] |
| --- | --- |
| COc1ccc2nc(NC(=O)CCNC(=O)c3ccccc3Cl)sc2c1 | 2.68 |
| O=C(c1cccnc1)C1CCCN(Cc2nc(Cc3ccccc3)no2)C1 (centres unmarked) | 11 |
| CCC(=O)Oc1ccc2c(C)c(Cl)c(=O)oc2c1 | -2.38 |
| Cc1ccc(N=CC2=C(O)CC(C)(C)CC2=O)nc1 | 15.1 |
| COC(=O)[C@@]12CCCCN1[C@H](c1ccc(-c3ccc(C(C)=O)cc3)cc1)[C@H]1C(=O)N(C)C(=O)[C@H]12.O=C(O)C(F)(F)F | 11.4 |
| COc1ccc(OC)c(NC(=O)COC(=O)CN2C(=O)NC3(CCCC3)C2=O)c1 | 9.7 |
| O=C(c1oc2ccccc2c1N1CCCCC1)N1CCCCC1 | -4.4 |
| CCn1c(/C=C/N(C(C)=O)c2ccccc2)[n+](CCCS(=O)(=O)[O-])c2cc(Cl)c(Cl)cc21 | 10.6 |
| COc1ccc(C(C#N)N2N=C(C)CC2(C)C)cc1 (centres unmarked) | 5.93 |
| O=C(NN=C1CCCCCC1)c1ccc(Cl)s1 | 16.8 |
| O=C(CCc1c[nH]c2ccccc12)N1CCCC1 | 23.9 |
| CC(NC(=O)c1cccc(S(=O)(=O)N(C)C)c1)c1nc2ccccc2[nH]1 (centres unmarked) | 9.08 |
| O=C1CSC(c2ccccn2)N1c1ccc(Cl)c(Cl)c1 (centres unmarked) | 6.82 |
| CCN1CCc2nc3sc(C(=O)N4CCc5ccccc5C4)c(N)c3cc2C1 | 15.9 |
| CCCCN(C)C1CCN(C(=S)Nc2cccc(SC)c2)CC1 | -14.7 |
| O=C(Cc1ccccc1)NCC(=O)N1CCCCCC1 | 5.64 |
| O=C(Nc1nn[nH]n1)c1cccc(Oc2ccccc2)c1 | 22.7 |
| O=C(CSc1nnc(CN2CCOCC2)n1-c1ccc(Cl)cc1)Nc1ccc2c(c1)OCO2 | -5.5 |
| Cc1ccc(C)c(CN2CCC(CNC(=O)Nc3cccc(Cl)c3C)CC2)c1 | 0.806 |
| COc1cc(/C=N/NC(=O)c2cccnc2)ccc1OCC(=O)Nc1c(C)cc(C)cc1C | 21.1 |
| CN1CCN(C(=O)Nc2cccc(-c3ccccc3)c2)CC1 | 7.08 |
| O=c1c2c(nc3nc(SCc4ccccc4)[nH]n13)CCC2 | 2.62 |

| SMILES | hERG current change (%, negative = inhibition) at 1uM [%] |
| --- | --- |
| COc1ccc(/C=N/NC(=O)c2nn(-c3ccc(C)c(C)c3)c(=O)c3ccccc23)cc1 | 2.99 |
| COC(=O)c1cc(-c2ccc(Br)cc2)c2c(=O)[nH]c(=O)n(C)c2n1 | 14.3 |
| COc1ccc2[nH]c3c(c2c1)CCN1C(=O)N([C@@H](C)C(=O)NCc2ccco2)C(=O)[C@]31C | -12.5 |
| Cc1ccccc1C(=O)N1N=C(c2ccc(NS(C)(=O)=O)cc2)CC1c1cccs1 (centres unmarked) | 2.15 |
| CCCCN(C(=O)C(C)N1C(=O)c2ccccc2C1=O)c1c(N)n(CCCC)c(=O)[nH]c1=O (centres unmarked) | 13.1 |
| COc1ccc(NC(=O)CSc2nc(-c3ccc(C)cc3)cc(C(F)(F)F)c2C#N)cc1 | 31.8 |
| COC(=O)c1cccc(C(=O)N2CCCC(Nc3ccc(C)c(C)c3)C2)c1 (centres unmarked) | 8.18 |
| O=C(CSc1nnc2ccccn12)Nc1nsc(-c2ccccc2)n1 | 8.86 |
| CCC(C)c1ccc(N2C(=O)NC(=O)/C(=C/c3cccn3CCOc3ccc(C)cc3)C2=O)cc1 (centres unmarked) | 16.9 |
| CCO.Cc1[nH]nc2c1C(c1cccs1)C1=C(CCCC1=O)N2 (centres unmarked) | 12.9 |
| COC(=O)c1ccc(NC(=O)C(C)Oc2ccccc2)cc1 (centres unmarked) | -0.376 |
| COc1ccc(OC(=O)c2cc3cc(Cl)ccc3oc2=O)cc1 | 9.73 |
| CCOc1cc(/C=C2/NC(=O)N(Cc3ccccc3F)C2=O)ccc1O | 11 |
| Cc1c(O)c(=O)ccn1C | 11.9 |
| COc1ccc(C2=CC(=O)C[C@H](c3ccc(OC)c(OC)c3)C2)cc1 | 5.39 |
| O=C(CN1CCN(S(=O)(=O)c2cccc(Br)c2)CC1)NCCc1cccs1 | 7.73 |
| O=C(COc1ccc(F)cc1)Nc1nnc(-c2ccncc2)s1 | -1.35 |
| Cc1ccc(-c2oc3ccccc3c(=O)c2O)cc1 | 9.86 |
| CCC(C)NC(=O)CSc1nnc(-c2cc(OC)c(OC)c(OC)c2)c(-c2cc(OC)c(OC)c(OC)c2)n1 (centres unmarked) | 10.8 |
| COc1cccc2cc(C(C)N(CCCN3CCOCC3)C(=S)Nc3ccc(C)cc3)oc12 (centres unmarked) | 9.54 |
| Cc1ccc(NC(=O)CN(C)C(=O)c2ccccc2OCc2c(C)noc2C)cc1 | 2.17 |
| COc1ccccc1N1CCN(C(c2cc3ccc(C)cc3[nH]c2=O)c2nnnn2C2CCCC2)CC1 (centres unmarked) | -8.67 |

| SMILES | hERG current change (%, negative = inhibition) at 1uM [%] |
| --- | --- |
| CC(=O)Nc1ccc(NC(=O)C(C)OC(=O)C2CCCCC2)cc1 (centres unmarked) | -2.39 |
| O=C(N/N=C\c1cccc(F)c1)c1ccc(Cn2cc(Br)c([N+](=O)[O-])n2)o1 | -2.41 |
| COc1cccc(/C=N/NC(=O)C(C)n2nc(C)c([N+](=O)[O-])c2C)c1O (centres unmarked) | 6.33 |
| Cc1nn(Cc2ccccc2)c(C)c1NC(=O)c1cc(-c2ccc3c(c2)OCO3)on1 | 14 |
| O=[N+]([O-])c1ccccc1S(=O)(=O)N1CCN(C2CCN(Cc3ccccc3)CC2)CC1 | -18.2 |
| CCN(CC(=O)Nc1ccc(OC)cc1)C(=O)Cc1coc2cc(C)c(C)cc12 | -3.3 |
| CC1(C)NC(=O)N(CCOCCOc2c(Cl)cc(Cl)cc2Cl)C1=O | 1.41 |
| CC(C)CC(=O)N1CCC(O)(CS(=O)(=O)Cc2ccc(Cl)cc2)CC1 | -3.08 |
| COC(=O)C1C2C=CC3(CN(CCc4ccccc4)C(=O)C13)O2 (centres unmarked) | 12.7 |
| Cc1cc(C)c(C(=O)COC(=O)c2ccc([N+](=O)[O-])o2)cc1C | 15.8 |
| COc1ccc(Cl)cc1-n1c(C)ccc1C | 12.1 |
| CC(C)(C)N(Cc1ccccc1)C(=O)c1ccc(Br)o1 | 10 |
| O=C(O)[C@H]1CCCC[C@H]1C(=O)Nc1cc([N+](=O)[O-])ccc1F | 11.5 |
| Cc1ccc(NC(=O)CN(C)C(=O)Cc2ccc(Cl)c(Cl)c2)cc1 | 10.9 |
| O=C(CN1C(=O)COc2ccccc21)NCCN1CCOCC1 | 7.77 |
| COc1ccc(CN(CCC(c2ccco2)C(C)C)C(C)=O)cc1OC (centres unmarked) | 11.5 |
| CC(C)Oc1ccc(CNC(=S)Nc2ccccc2)cc1Cl | 13.2 |
| Cc1cc(=O)n(C)c2ccccc12 | 8.74 |
| O=[N+]([O-])c1cc(S(=O)(=O)Nc2ccccc2)ccc1-n1nnc2ccccc21 | 5.08 |
| O=C(CSc1nc(-c2ccco2)cc(C(F)(F)F)n1)NN1CCOCC1 | 12.6 |
